Assay results as given in the supplement of paper PMC11417369.
This is one part of the list.

Test system: PfHDP1 homeodomain (GST-tagged)
Experiment: gcPBM binding intensity (ln(normalized median fluorescence intensity)); higher = stronger DNA binding
Procedure, shortened: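 DNA-binding domains from P. falciparum, fused to GST and produced in E. coli, were put on an Agilent 4 × 180k double-stranded probe array for 1 h in 1× PBS holding 1% milk, 0.2 mg/ml BSA, 0.5% salmon testes DNA and 0.03% Triton X-100. Probes were primer-extended, 36 bp long and drawn from intergenic genomic regions, with negative controls included. After Alexa488 anti-GST antibody detection and a 488 nm scan, binding intensity was set as the highest Masliner-normalised natural-log median intensity across replicate spots of either probe orientation.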

Sequence | gcPBM binding intensity (ln)
ACGAAGATTTATCTTGCACACGCAAAAAAAAAAAAA [CACACA_site7933] | 7.58
TTTTTTTTTTTTTTTTTTTTTTTTTTTTTTTTTTTT [CACACA_negctrl_site104] | 7.42
GTATAAAAAAATAAAAGTACAAAAAAAAAAGACTGA [XGTACX_site186] | 6.51
AAATAAAAAATATGAACACACATATATAACAAAATA [CACACA_site261] | 6.79
TACTGGTATCGATATAGTACATATAATATTATGTTA [XGTACX_site7490] | 6.53
AATTGAATAAATTAAACATGCACAGATGTTCTATTT [TGCATGCA_site692] | 7.37
AGGATTAAAAAAACATGTACGTATTTAAATATATTT [XGTACX_site8774] | 6.71
AAAAAAAAAAAAAACACACACACACCCATAAATATA [CACACA_site151] | 6.87
TTTGTGTTTATAAATTGTACAAAGGTGCAAGAAGAA [XGTACX_site2159] | 9.69
TGTTGTCCTAATTCTACACACAATGGTTTATTAAAA [CACACA_site2648] | 6.89
CATATACTTCTGTGCACACGAATATTTTTCTTCTTC [CACACA_site1407] | 11.2
TTTTAACGTAAAACATTGATGATATAAAAAATAGGA [GTGCAC_negctrl_site540] | 6.75
TATACTCATATTTTTACACACATATTTTTTCATATA [CACACA_site5412] | 6.99
AGGATATATAAGTATACACACATATTTATATTTATA [CACACA_site6239] | 6.34
TTAAAATATACATAAACACACACAAAACGTTTAAGA [CACACA_site8267] | 7.05
AATTTAAAATATATAGTACACACGTGAACACAAATA [CACACA_site416] | 6.61
TGTATTTATAATAAAACACACATTTTTAATGTGCTC [CACACA_site4908] | 6.36
TAACAATAACTTTATACACACATAATATATATATAT [CACACA_site3543] | 8.65
TGTAAATTATAACGTGCACACATATTTAAAATGAAA [CACACA_site8915] | 9.88
AGATATTTATTGAGTGCATGTTATAAAGGGAAAAAA [TGCATGCA_site88] | 7.99
ATATAGAAAATGCATACACACTTTATAAATATATTT [CACACA_site6553] | 6.67
ATCCACTTTTTGAAGACACACACAAAAAAAAAAAAA [CACACA_site8818] | 6.49

Sequence | gcPBM binding intensity (ln)
AATTAGATGGATAAATGTACATAATGTGAATATATT [XGTACX_site86] | 6.93
TAAAAATAATTTGCATGTACATAGGTCGATGTATTT [XGTACX_site1357] | 6.42
AAAAAAAAAAAACACACACACAATAGTATATAAATC [CACACA_site956] | 6.71
ATATGATCATAAAACACACACACAAAAAAAAAAAAA [CACACA_site1806] | 6.32
TATTTTTATTATATGGTGCATATATACATACATATA | 9.96
TTCAAGCCCTTCTGCTTACACACAGTAATTATTGTG [CACACA_site2952] | 6.56
AAGTGCATATTATTCACACATAATAATTGTATACCT [CACACA_site5965] | 10.5
CAAAATAATAATAAAAGTACTAACATATTTATGAAA [XGTACX_site6078] | 6.27
TTCTTTTTATTTATATTTTCCCCTCTCTATAGCTAT [XGTACX_negctrl_site102] | 7.06
ATAATTCAAAAAAACACACAAATTACAAAATAAACT [CACACA_site6264] | 6.73
ATATTTCTGTGTGGATGTACATTATTAGCAGGCTTT [XGTACX_site6496] | 6.8
AAAATATATACACAAACATGCATATAATAAATAAAT [TGCATGCA_site711] | 6.52
AGGTAAAAATGGTAAGTGCATTAATGATAAAAAATG | 9.1
GAATATTCACATACTTGTACATATATATATATATAT [XGTACX_site7302] | 9.35
AAAAAAAAAAAACACACACACACACCGACACATACA [CACACA_site5576] | 6.76
ATATTTTGGGGACTTTTTAAAAAAGAAGTATTAAAA [CACACA_negctrl_site1228] | 6.6
GTAAATATATAAACATGTACATATATAAATATATAA [XGTACX_site7262] | 6.3
TGGCAAAATAGGCACACACACATATACCTATAGATT [CACACA_site7168] | 6.68
GTTTACATAGATAACTGTACGCAATGATATTAGACA [XGTACX_site1320] | 6.14
TATAAGAATAAAAAGGGTACATAAAATAATAATATA [XGTACX_site2355] | 6.56
CAAAAAAAATAAAACACACACACAAAAAAATAAAAA [CACACA_site466] | 6.78
TAATAATAGTACTGACATCGAAATATTATTAAAAAT [CACACA_negctrl_site255] | 6.24
